Patent US11178870B2 (priority 2017, dated 2021)

Tests used:
Assay type in all cases: in vivo
[1] = tested on: Blumeria graminis f. sp. hordei; assay: Test Example D: Powdery mildew on barley; conditions: for Test D control value (powdery mildew on barley): class of control value, Table 7; for Test D control value: Powdery mildew on barley; for control value, Test D (powdery mildew on barley): Table 7, Test D
Puccinia recondita = assay: Test Example E: Brown rust on wheat; conditions: for Test E control value (brown rust on wheat): class of control value, Table 7; for Test E control value: Brown rust on wheat; for control value, Test E (brown rust on wheat): Table 7, Test E
Plasmopara viticola = assay: Test Example G: Downy mildew on vine; conditions: for Test G control value (downy mildew on vine): 250 ppm spray, investigated 7 to 10 days after inoculation; for Test G control value (downy mildew on vine) / Test G control value: 2.5 ml/pot; for Test G control value: Downy mildew on vine, 250 ppm sprayed, 7 to 10 days after inoculation; for control value, Test G (downy mildew on vine): 250 ppm sprayed (2.5 ml/pot) before inoculation, assessed 7 to 10 days after inoculation
Botrytis cinerea = assay: Test Example B: Gray mold on tomato; conditions: for Test B control value (gray mold on tomato): class of control value, Table 7; for Test B control value: Gray mold on tomato; for control value, Test B (gray mold on tomato): Table 7, Test B
Alternaia brassicicola = assay: Test Example C: Alternaria sooty spot on cabbage; conditions: for Test C control value (Alternaria sooty spot on cabbage): class of control value, Table 7; for Test C control value: Alternaria sooty spot on cabbage; for control value, Test C (Alternaria sooty spot on cabbage): Table 7, Test C

Compound	Test D control value (powdery mildew on barley) [1]	Test E control value (brown rust on wheat) (Puccinia recondita)	Test G control value (downy mildew on vine) (Plasmopara viticola)	Test B control value (gray mold on tomato) (Botrytis cinerea)	Test C control value (Alternaria sooty spot on cabbage) (Alternaia brassicicola)	Test D control value [1]	Test E control value (Puccinia recondita)	Test G control value (Plasmopara viticola)	Test B control value (Botrytis cinerea)	Test C control value (Alternaia brassicicola)	control value, Test D (powdery mildew on barley) [1]	control value, Test E (brown rust on wheat) (Puccinia recondita)	control value, Test G (downy mildew on vine) (Plasmopara viticola)	control value, Test B (gray mold on tomato) (Botrytis cinerea)	control value, Test C (Alternaria sooty spot on cabbage) (Alternaia brassicicola)
CCn1c(-c2ccccc2F)c(-n2cc(F)cn2)ccc1=O [Compound 382]	H (H shows the control value more than 50%)	H (H shows the control value more than 50%)	L (L shows the control value of 50% or less)	H (H shows the control value more than 50%)	L (L shows the control value of 50% or less)										
CCn1c(-c2c(F)cccc2F)c(-n2ncc(C)c2Cl)ccc1=O [Compound 153]						H (H shows the control value more than 50%)	H (H shows the control value more than 50%)	H (H shows the control value more than 50%)	H (H shows the control value more than 50%)	H (H shows the control value more than 50%)					
CCn1c(-c2c(F)cccc2Cl)c(-n2cc(Cl)cn2)cc(Br)c1=O [Compound 199]											L (L shows the control value of 50% or less)	L (L shows the control value of 50% or less)	L (L shows the control value of 50% or less)	L (L shows the control value of 50% or less)	H (H shows the control value more than 50%)
CCn1c(-c2ccccc2F)c(-n2cc(F)cn2)cc(Cl)c1=O [Compound 383]	H (H shows the control value more than 50%)	H (H shows the control value more than 50%)	L (L shows the control value of 50% or less)	H (H shows the control value more than 50%)	H (H shows the control value more than 50%)										
CCn1c(-c2c(F)cccc2F)c(-n2cccn2)ccc1=O [Compound 31]						H (H shows the control value more than 50%)	L (L shows the control value of 50% or less)	L (L shows the control value of 50% or less)	H (H shows the control value more than 50%)	H (H shows the control value more than 50%)					
CCn1c(-c2c(F)cccc2F)c(-c2ccsc2Cl)cc(Br)c1=O [Compound 299]											L (L shows the control value of 50% or less)	H (H shows the control value more than 50%)	L (L shows the control value of 50% or less)	H (H shows the control value more than 50%)	H (H shows the control value more than 50%)
CCn1c(-c2c(F)cccc2F)c(-c2ccsc2C)cc(Cl)c1=O [Compound 390]	L (L shows the control value of 50% or less)	H (H shows the control value more than 50%)	L (L shows the control value of 50% or less)	H (H shows the control value more than 50%)	H (H shows the control value more than 50%)										
CCn1c(-c2ccccc2Br)c(-n2cc(Cl)cn2)ccc1=O [Compound 183]						H (H shows the control value more than 50%)	H (H shows the control value more than 50%)	H (H shows the control value more than 50%)	H (H shows the control value more than 50%)	H (H shows the control value more than 50%)					
Cc1cnn(-c2cc(Cl)c(=O)n(CC(F)F)c2-c2ccccc2Cl)c1Cl [Compound 229]											H (H shows the control value more than 50%)	H (H shows the control value more than 50%)	L (L shows the control value of 50% or less)	H (H shows the control value more than 50%)	H (H shows the control value more than 50%)
